# Experimental data reported in patent EP0589484A1, “1,2-Ethanediol derivative and salt thereof, process for producing the same, and cerebral function-improving agent comprising the same” (TOYAMA CHEMICAL CO., LTD., priority 1989, dated 1990).
# The name of at least one read-out is uncertain.
# Experiments:
# ddY male mouse [1] = assay: Cycloheximide-induced amnesia, step-down passive avoidance; format: in vivo; conditions: median response latency of 10 mice
# ddY male mouse [2] = assay: Electroconvulsive shock (ECS)-induced amnesia, step-through passive avoidance task; format: in vivo; conditions: median response latency of 10 mice
# [3] = dosage 3 mg/Kg intraperitoneally
Compound,Antiamnesic activity (ddY male mouse [1]; dosage 3 mg/Kg orally),Antiamnesic activity (ddY male mouse [2]; [3]),other results
"CN(C)CCOCC(O)c1cccc(F)c1.Cl (centres unmarked) [Compound No. 1, 2-[2-(N,N-dimethylamino)ethoxy]-1-(3-fluorophenyl)ethanol hydrochloride]",++ (++ : 101-150 seconds),,
"CN(C)CCOCC(O)c1cccc(C(F)(F)F)c1.Cl (centres unmarked) [Compound No. 42, 2-[2-(N,N-dimethylamino)ethoxy]-1-(3-trifluoromethylphenyl)ethanol hydrochloride]",+ (+ : 61-100 seconds),,
"CN(C)CCOCC(O)c1ccc(OCc2ccccc2)cc1.Cl (centres unmarked) [Compound No. 48, 1-(4-benzyloxyphenyl)-2-[2-(N,N-dimethylamino)ethoxy]ethanol hydrochloride]",++ (++ : 101-150 seconds),++ (++ : 101-150 seconds),
"CN(C)CCOCC(O)c1ccc(O)cc1.Cl (centres unmarked) [Compound No. 170, 1-(4-hydroxyphenyl)-2-[2-(N,N-dimethylamino)ethoxy]ethanol hydrochloride]",,++ (++ : 101-150 seconds),
"Cc1cccc(C(O)COCCN(C)C)c1.Cl (centres unmarked) [compound 15, 2-[2-(N,N-dimethylamino)ethoxy]-1-(3-methylphenyl)ethanol hydrochloride]",+++ (+++ : 151-300 seconds),+++ (+++ : 151-300 seconds),
"Cl.OC(COC1CCN(Cc2ccccc2)CC1)c1ccccc1 (centres unmarked) [compound 113, 2-(1-benzylpiperidin-4-yloxy)-1-phenylethanol hydrochloride]",++ (++ : 101-150 seconds),,
"CCNC(=O)Oc1cccc(C(COCCN(C)C)OC(C)=O)c1.Cl (centres unmarked) [compound 189, 1-acetoxy-1-[3-(N-ethylcarbamoyloxy)phenyl]-2-[2-(N,N-dimethylamino)-ethoxy]ethane hydrochloride]",,+++ (+++ : 151-300 seconds),
"CN(C)CCOCC(O)c1cccc2ccccc12.Cl (centres unmarked) [compound 228, 2-[2-(N,N-dimethylamino)ethoxy]-1-(1-naphthyl)ethanol hydrochloride]",++ (++ : 101-150 seconds),,Antiamnesic activity (ddY male mouse [2]; dosage 10 mg/Kg intraperitoneally): + (+ : 61-100 seconds)
"CN(C)CCOCC(O)c1ccc2ccccc2c1.Cl (centres unmarked) [compound 229, 2-[2-(N,N-dimethylamino)ethoxy]-1-(2-naphthyl)ethanol hydrochloride]",,+ (+ : 61-100 seconds),Antiamnesic activity (ddY male mouse [1]; dosage 10 mg/Kg orally): ++ (++ : 101-150 seconds)
"Cl.O=C(c1ccc(F)cc1)C1CCN(CCOCC(O)c2cccc3ccccc23)CC1 (centres unmarked) [compound 260, 2-{2-[4-(p-fluorobenzoyl)piperidin-1-yl]ethoxy}-1-(1-naphthyl)ethanol hydrochloride]",+ (+ : 61-100 seconds),,
"CNCCOCC(O)c1cccc2ccccc12.Cl (centres unmarked) [compound 261, 2-[2-(N-methylamino)ethoxy]-1-(1-naphthyl)ethanol hydrochloride]",+++ (+++ : 151-300 seconds),+ (+ : 61-100 seconds),
"CN(C)CCOCC(O)c1ccc2sccc2c1.Cl (centres unmarked) [compound 312, 1-(benzo[b]thiophen-5-yl)-2-[2-(N,N-dimethylamino)ethoxy]ethanol hydrochloride]",,,Antiamnesic activity (ddY male mouse [1]; dosage 10 mg/Kg orally): + (+ : 61-100 seconds)
CN(C)CCOCC(O)c1cccnc1 (centres unmarked) [compound 315],,++ (++ : 101-150 seconds),
OC(COC1CN2CCC1CC2)c1ccc2sccc2c1 (centres unmarked) [compound 346],+ (+ : 61-100 seconds),,
"Cl.O=C(NCCOCC(O)c1ccc2sccc2c1)c1cccnc1 (centres unmarked) [compound 360, 1-(benzo[b]thiophen-5-yl)-2-[2-(nicotinoylamino)ethoxy]ethanol hydrochloride]",,,Antiamnesic activity (ddY male mouse [1]; dosage 10 mg/Kg orally): + (+ : 61-100 seconds)
